Measurements taken from ChEMBL document CHEMBL4888484, “Replenishing the malaria drug discovery pipeline: Screening and hit evaluation of the MMV Hit Generation Library 1 (HGL1) against asexual blood stage Plasmodium falciparum ,using a nano luciferase reporter read-out” (2022).
In all, about 150,000 compounds went through this assay and about 540 (0.36%) showed an effect of 50% or more. The list shows a part of the results.

Tested on: Plasmodium falciparum
Assay: Primary screen in NF54 nanoGlo assay, in single point, at 2uM, 72h; a lower Z score goes with more inhibition
Format: functional, Erythrocyte
Settings: timepoint 72 hour

Going from `Nc1cc(Br)c(C(F)(F)F)cc1NC(=O)C(F)(F)F` to `Cc1cccc(NC(=O)CCC(=O)OCC(F)(F)C(F)F)c1C`, the “% Inhibition” value rises from 36% to 37%.

Compared with `CCOc1cc(CN2CC[C@H](c3ccc(F)cc3)[C@@H](O)C2)ccc1O`, `CCOc1ccc(C(=O)N2CC[C@H](n3cnnc3CC)C2)cc1OCC` is lower in “% Inhibition” value: 14% for the first, -10% for the second.

Compared with `COCCn1cc(NC(=O)Nc2cnn(CC(F)F)c2)cn1`, `O=C(NCCn1cc(-c2ccncc2)cn1)c1ccsc1` is higher in “% Inhibition” value: -16% for the first, -11% for the second.

First: CCN1CCN(S(=O)(=O)c2cc(-c3ccc(=O)[nH]n3)cc(C)c2C)CC1
Second: COc1ccc(Br)cc1CN1CCN(Cc2cccn2C)CC1
The “% Inhibition” value of the first is higher: -2% for the first, -11% for the second.

Compared with `O=C(COc1ccccc1)Nc1cc(-n2cncn2)ncn1`, `CC(C)[C@H](NC(=O)[C@H](Cc1ccccc1)n1cnnn1)c1nc2ccccc2[nH]1` is higher in “% Inhibition” value: -16% for the first, -15% for the second.

Going from `Cc1ccc(-c2noc([C@@H]3CCCCN3)n2)cc1` to `COCC[C@]1(c2noc(-c3ccncc3)n2)CCCNC1`, the “% Inhibition” value falls from 31% to -3%.

First: C[C@@H](CNC(=O)c1cnc(Cc2c(Cl)cccc2Cl)nc1O)n1ccnc1
Second: CC(C)c1cc(C(=O)OCc2cccc3cn[nH]c23)nn1C
The “% Inhibition” value of the first is lower: -4% for the first, -1% for the second.

Going from `Cc1ccc(OC2Cc3ccccc3C2)nn1` to `O=C(NC[C@H]1Cc2ccccc2CO1)Nc1cccs1`, the “% Inhibition” value falls from -7% to -12%.

First: O=C(O)c1nc2ccccc2nc1C1CC1
Second: Cc1cccc(NC(=O)N2CCCCC[C@H]2c2ccccc2Cl)c1
The “% Inhibition” value of the first is lower: 2% for the first, 3% for the second.

First: FCC(CF)NCc1cn(C2CCCC2)nc1-c1ccccn1
Second: COc1cccc2sc(N3CC(C(=O)NC4CCCC4)C3)nc12
The “% Inhibition” value of the first is lower: -12% for the first, -9% for the second.

First: O=C(NOC1CCCCO1)C1CC12CCOCC2 (configuration not stated)
Second: Cc1cc(F)cc(NC(=O)NO[C@@H]2CCCCO2)c1
The “% Inhibition” value of the first is lower: -10% for the first, 4% for the second.

First: Cc1nccn1CCNC(=O)C(=O)NC(C)(C)C
Second: CN1C(=O)C[C@H](C(=O)NCCc2cc[nH]n2)C1(C)C
The “% Inhibition” value of the first is lower: -18% for the first, -8% for the second.

Going from `CN(CC1CC1)c1nnc([C@H]2CCCO2)n1Cc1cccs1` to `Cc1ccnc2nc(C(=O)OC[C@H]3CCCO3)nn12`, the “% Inhibition” value rises from -7% to 9%.

First: CCCCOCC(=O)NCc1nc2ccccn2c1Cl
Second: CCC[C@@H](CNC(=O)c1sccc1Cl)N(C)C
The “% Inhibition” value of the first is higher: -3% for the first, -11% for the second.

Going from `Cc1n[nH]c(C)c1CC(=O)N1CCCC(C)C1C(=O)OC(C)(C)C` (configuration not stated) to `CCOC(=O)CN(C)C(=O)C(C)(C)[C@H]1CCC[C@@H](C(F)(F)F)N1`, the “% Inhibition” value rises from -5% to 8%.

Compared with `COc1cccc(-c2nc3ccc(C(=O)N[C@H]4CCOC(C)(C)C4)cc3o2)c1`, `COc1cccc(C2=NN(C(C)=O)C3(CCCCC3)O2)c1` is higher in “% Inhibition” value: -5% for the first, 7% for the second.

`Cc1nc(-c2cccc(C(F)(F)F)c2)c(N)c(N2CCOCC2)n1` and `O=C(c1cn2cccnc2n1)N1CC[C@@]12CCOC2` are the same in “% Inhibition” value: 9% for the first, 9% for the second.

First: Cc1ccc2[nH]cc(-c3ccc(CS(C)(=O)=O)cn3)c2c1
Second: CC(C)c1noc(-c2ccc(-c3ccc4c(c3)OCO4)nc2)n1
The “% Inhibition” value of the first is lower: -15% for the first, 3% for the second.

Going from `Cc1ccc(C/N=C2\C(c3ccc(N(C)C)cc3)=Nc3ncnn32)cc1` to `COc1ccc(NC(=O)Cc2ccc(OC)c(OC)c2)cc1NC(=O)c1ccccc1C`, the “% Inhibition” value rises from -2% to 14%.

First: Cc1cc2c(cc1C)N(C(=O)[C@H](Cc1ccccc1)N1C(=O)c3ccccc3C1=O)C(C)(C)c1ssc(=S)c1-2
Second: O=C(Nc1ccccc1)N1CCC2(CC1)C[C@@H](N1CCN(c3ccccc3)CC1)CCO2
The “% Inhibition” value of the first is higher: 5% for the first, -24% for the second.

Going from `Cc1c(C(=O)N2CCC[C@H]2C(=O)Nc2cc(Cl)cc(Cl)c2)cnn1C` to `COCCN1CC[C@H](C(=O)Nc2cc(C)c3nc(N)sc3c2)C1`, the “% Inhibition” value falls from 2% to -7%.

Going from `NS(=O)(=O)C[C@H]1CCCN(Cc2csc3c(F)cccc23)C1` to `CO[C@@H]1CCN(C(=O)Nc2ccnn2Cc2ccc(Cl)s2)C1`, the “% Inhibition” value falls from -1% to -4%.

Going from `COCCn1nnnc1[C@@H]1CN(C(=O)c2cc(C)n3nc(C)cc3n2)CCO1` to `COCCN1C[C@]2(CCCN(C(=O)c3cnc(C)nc3C)C2)CCC1=O`, the “% Inhibition” value rises from -6% to -4%.

Compared with `COc1cc(Cn2ccnc2C2CCN(C)CC2)cc(OC)c1OC`, `COc1cc(OC)nc(N2CCC(OCc3cccnc3)CC2)n1` is lower in “% Inhibition” value: 11% for the first, -12% for the second.

Compared with `CCC1CCN(C(=O)CCC(N)=O)CC1`, `CCCN1CCC[C@H](C(=O)N2CCCCCC2)C1` is lower in “% Inhibition” value: 16% for the first, -16% for the second.

Going from `CC(NC(=O)C(C1CC1)N1CCCC1)c1ccc(-n2ccnn2)cc1` (configuration not stated) to `N#Cc1ccc(N2CC[C@H](OCCN3CCCCC3)C2)nc1`, the “% Inhibition” value falls from -8% to -16%.

Compared with `CCO[C@H]1COC[C@@H]1NC(=O)N(C)Cc1ccoc1`, `Brc1cnc(NCCCO[C@H]2CCOC2)nc1` is higher in “% Inhibition” value: -15% for the first, -3% for the second.

`C=CCn1cc(-c2cn(C3CCN(S(C)(=O)=O)CC3)nn2)cn1` and `Cn1cc(CNC2C3CCOC3C23CCCC3)c(C(F)(F)F)n1` (configuration not stated) are the same in “% Inhibition” value: -9% for the first, -9% for the second.

Going from `Nc1cc(Br)c(C(F)(F)F)cc1NC(=O)C(F)(F)F` to `Cc1cccc(NC(=O)CCC(=O)OCC(F)(F)C(F)F)c1C`, the Z score falls from -4.67 to -5.37.

Going from `CCOc1cc(CN2CC[C@H](c3ccc(F)cc3)[C@@H](O)C2)ccc1O` to `CCOc1ccc(C(=O)N2CC[C@H](n3cnnc3CC)C2)cc1OCC`, the Z score rises from -1.79 to 1.66.

Compared with `COCCn1cc(NC(=O)Nc2cnn(CC(F)F)c2)cn1`, `O=C(NCCn1cc(-c2ccncc2)cn1)c1ccsc1` is higher in Z score: 1.61 for the first, 2.17 for the second.

First: CCN1CCN(S(=O)(=O)c2cc(-c3ccc(=O)[nH]n3)cc(C)c2C)CC1
Second: COc1ccc(Br)cc1CN1CCN(Cc2cccn2C)CC1
The Z score of the first is lower: 0.26 for the first, 1.45 for the second.

Going from `O=C(COc1ccccc1)Nc1cc(-n2cncn2)ncn1` to `CC(C)[C@H](NC(=O)[C@H](Cc1ccccc1)n1cnnn1)c1nc2ccccc2[nH]1`, the Z score falls from 2.75 to 1.85.

Compared with `Cc1ccc(-c2noc([C@@H]3CCCCN3)n2)cc1`, `COCC[C@]1(c2noc(-c3ccncc3)n2)CCCNC1` is higher in Z score: -3.54 for the first, 0.4 for the second.

First: C[C@@H](CNC(=O)c1cnc(Cc2c(Cl)cccc2Cl)nc1O)n1ccnc1
Second: CC(C)c1cc(C(=O)OCc2cccc3cn[nH]c23)nn1C
The Z score of the first is higher: 0.62 for the first, 0.07 for the second.

Compared with `Cc1ccc(OC2Cc3ccccc3C2)nn1`, `O=C(NC[C@H]1Cc2ccccc2CO1)Nc1cccs1` is higher in Z score: 1.06 for the first, 2.01 for the second.

First: O=C(O)c1nc2ccccc2nc1C1CC1
Second: Cc1cccc(NC(=O)N2CCCCC[C@H]2c2ccccc2Cl)c1
The Z score of the first is higher: -0.22 for the first, -0.66 for the second.

Going from `FCC(CF)NCc1cn(C2CCCC2)nc1-c1ccccn1` to `COc1cccc2sc(N3CC(C(=O)NC4CCCC4)C3)nc12`, the Z score falls from 1.88 to 1.76.

First: O=C(NOC1CCCCO1)C1CC12CCOCC2 (configuration not stated)
Second: Cc1cc(F)cc(NC(=O)NO[C@@H]2CCCCO2)c1
The Z score of the first is higher: 1.04 for the first, -0.45 for the second.

First: Cc1nccn1CCNC(=O)C(=O)NC(C)(C)C
Second: CN1C(=O)C[C@H](C(=O)NCCc2cc[nH]n2)C1(C)C
The Z score of the first is higher: 2.66 for the first, 1.36 for the second.

Going from `CN(CC1CC1)c1nnc([C@H]2CCCO2)n1Cc1cccs1` to `Cc1ccnc2nc(C(=O)OC[C@H]3CCCO3)nn12`, the Z score falls from 1.32 to -1.18.

Compared with `CCCCOCC(=O)NCc1nc2ccccn2c1Cl`, `CCC[C@@H](CNC(=O)c1sccc1Cl)N(C)C` is higher in Z score: 0.39 for the first, 1.68 for the second.

Going from `Cc1n[nH]c(C)c1CC(=O)N1CCCC(C)C1C(=O)OC(C)(C)C` (configuration not stated) to `CCOC(=O)CN(C)C(=O)C(C)(C)[C@H]1CCC[C@@H](C(F)(F)F)N1`, the Z score falls from 0.63 to -1.08.

Going from `COc1cccc(-c2nc3ccc(C(=O)N[C@H]4CCOC(C)(C)C4)cc3o2)c1` to `COc1cccc(C2=NN(C(C)=O)C3(CCCCC3)O2)c1`, the Z score falls from 0.6 to -1.15.

Going from `Cc1nc(-c2cccc(C(F)(F)F)c2)c(N)c(N2CCOCC2)n1` to `O=C(c1cn2cccnc2n1)N1CC[C@@]12CCOC2`, the Z score rises from -1.2 to -1.09.

Compared with `Cc1ccc2[nH]cc(-c3ccc(CS(C)(=O)=O)cn3)c2c1`, `CC(C)c1noc(-c2ccc(-c3ccc4c(c3)OCO4)nc2)n1` is lower in Z score: 1.94 for the first, -0.47 for the second.

Compared with `Cc1ccc(C/N=C2\C(c3ccc(N(C)C)cc3)=Nc3ncnn32)cc1`, `COc1ccc(NC(=O)Cc2ccc(OC)c(OC)c2)cc1NC(=O)c1ccccc1C` is lower in Z score: 0.25 for the first, -1.85 for the second.

Compared with `Cc1cc2c(cc1C)N(C(=O)[C@H](Cc1ccccc1)N1C(=O)c3ccccc3C1=O)C(C)(C)c1ssc(=S)c1-2`, `O=C(Nc1ccccc1)N1CCC2(CC1)C[C@@H](N1CCN(c3ccccc3)CC1)CCO2` is higher in Z score: -0.58 for the first, 2.53 for the second.

Going from `Cc1c(C(=O)N2CCC[C@H]2C(=O)Nc2cc(Cl)cc(Cl)c2)cnn1C` to `COCCN1CC[C@H](C(=O)Nc2cc(C)c3nc(N)sc3c2)C1`, the Z score rises from -0.35 to 1.5.

Going from `NS(=O)(=O)C[C@H]1CCCN(Cc2csc3c(F)cccc23)C1` to `CO[C@@H]1CCN(C(=O)Nc2ccnn2Cc2ccc(Cl)s2)C1`, the Z score rises from 0.09 to 0.76.

First: COCCn1nnnc1[C@@H]1CN(C(=O)c2cc(C)n3nc(C)cc3n2)CCO1
Second: COCCN1C[C@]2(CCCN(C(=O)c3cnc(C)nc3C)C2)CCC1=O
The Z score of the first is higher: 1.25 for the first, 0.68 for the second.

Compared with `COc1cc(Cn2ccnc2C2CCN(C)CC2)cc(OC)c1OC`, `COc1cc(OC)nc(N2CCC(OCc3cccnc3)CC2)n1` is higher in Z score: -1.21 for the first, 1.06 for the second.

First: CCC1CCN(C(=O)CCC(N)=O)CC1
Second: CCCN1CCC[C@H](C(=O)N2CCCCCC2)C1
The Z score of the first is lower: -1.86 for the first, 1.76 for the second.

Compared with `CC(NC(=O)C(C1CC1)N1CCCC1)c1ccc(-n2ccnn2)cc1` (configuration not stated), `N#Cc1ccc(N2CC[C@H](OCCN3CCCCC3)C2)nc1` is higher in Z score: 0.94 for the first, 2.12 for the second.

Going from `CCO[C@H]1COC[C@@H]1NC(=O)N(C)Cc1ccoc1` to `Brc1cnc(NCCCO[C@H]2CCOC2)nc1`, the Z score falls from 1.94 to 0.32.

Going from `C=CCn1cc(-c2cn(C3CCN(S(C)(=O)=O)CC3)nn2)cn1` to `Cn1cc(CNC2C3CCOC3C23CCCC3)c(C(F)(F)F)n1` (configuration not stated), the Z score falls from 1.2 to 1.17.
